# Assay results taken from the supplement of paper PMC11060735.
# Several values for one entry are separate records, joined by “and”; a condition that tells them apart may be missing. Equal entries are not always repeated. Structures can show the parent of a compound that is named as a salt. About 50 (3%) of roughly 1,800 compounds showed activity. This is one part of the list.
# Test system: mouse p16Ink4a+/- lung fibroblasts (INKBRITE, bleomycin-injured)
# Test: percentage of GFP+ (p16Ink4a+) fibroblasts among all cells in well; higher = less depletion of p16Ink4a+ cells, active = 20 or less
# Conditions: 1 µM; 3 days
# 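Also: fibroblasts sorted 14 days after bleomycin, GFP+ and GFP− mixed 1:1 in 384-well plates (GFP− as in-well control), imaged after Hoechst and NucView530 staining, reference wells lacked compound.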
row,Compound,percentage of GFP+
1,"CNCCC(Oc1ccc(C(F)(F)F)cc1)c1ccccc1 (stereo unspecified) [Fluoxetine Hydrochloride, Fluoxetine]",inactive: 29.3%
2,O=C(CCCCCCC(=O)Nc1ccccc1)NO [Vorinostat],inactive: 41.4%
3,Nc1cc(C(F)(F)F)c(-c2cc(N3CCOCC3)nc(N3CCOCC3)n2)cn1 [Buparlisib],inactive: 41.6%
4,CNC[C@H](O)[C@@H](O)[C@H](O)[C@H](O)CO [Meglumine],inactive: 34.1%
5,Cc1ccnc(NS(=O)(=O)c2ccc(N)cc2)n1 [Sulfamerazine],inactive: 43.6%
6,Cc1cc(-n2c(=O)[nH]c(=O)n(C)c2=O)ccc1Oc1ccc(SC(F)(F)F)cc1 [Toltrazuril],inactive: 49.4%
7,Cn1c(=O)n(-c2ccc(C(C)(C)C#N)cc2)c2c3cc(-c4cnc5ccccc5c4)ccc3ncc21 [Dactolisib],inactive: 36%
8,NC(=O)c1ncn([C@@H]2O[C@H](CO)[C@@H](O)[C@H]2O)n1 [Ribavirin],inactive: 41.5%
9,Cc1ccc(C(=O)C(C)CN2CCCCC2)cc1 (stereo unspecified) [Tolperisone],inactive: 47.7%
10,Nc1ccn([C@@H]2CS[C@H](CO)O2)c(=O)n1 [Lamivudine],inactive: 44.1%
11,C[C@]12CCC3=C4CCC(=O)C=C4CC[C@H]3[C@@H]1CC[C@@]2(O)CC#N [Dienogest],inactive: 31.3%
12,CCOc1ccn(-c2ccc(F)cc2)c(=O)c1C(=O)Nc1ccc(Oc2ccnc(N)c2Cl)c(F)c1,inactive: 54.5%
13,CN1CCN(CCCN2c3ccccc3Sc3ccc(C(F)(F)F)cc32)CC1 [Trifluoperazine],inactive: 52%
14,"CO[C@H]1C[C@@H]2CC[C@@H](C)[C@@](O)(O2)C(=O)C(=O)N2CCCC[C@H]2C(=O)O[C@H]([C@H](C)C[C@@H]2CC[C@@H](OP(C)(C)=O)[C@H](OC)C2)CC(=O)[C@H](C)/C=C(\C)[C@@H](O)[C@@H](OC)C(=O)[C@H](C)C[C@H](C)/C=C/C=C/C=C/1C [Ridaforolimus, Deforolimus]",inactive: 34.9%
15,CC(C)(C)OC(=O)N[C@H]1CCCCC/C=C\[C@@H]2C[C@@]2(C(=O)NS(=O)(=O)C2CC2)NC(=O)[C@@H]2C[C@@H](OC(=O)N3Cc4cccc(F)c4C3)CN2C1=O [Danoprevir],inactive: 41.7%
16,COc1ccc(C[C@H](NC(=O)[C@H](C)NC(=O)CN2CCOCC2)C(=O)N[C@@H](Cc2ccccc2)C(=O)[C@]2(C)CO2)cc1,active: 11.6%
17,COc1cc2ncnc(Nc3cccc(Cl)c3)c2cc1OC,inactive: 50.1%
18,O[C@@H]1CO[C@H]2[C@@H]1OC[C@@H]2O [Isosorbide],inactive: 53%
19,Cc1c(C(=O)NN2CCCCC2)nn(-c2ccc(Cl)cc2Cl)c1-c1ccc(Cl)cc1 [Rimonabant],inactive: 48%
20,CN(C)CCOc1ccc(/C(=C(/CCCl)c2ccccc2)c2ccccc2)cc1 [Toremifene],inactive: 44.3%
21,CCOC(=O)CC(=O)N1CCSC1COc1ccccc1OC (stereo unspecified) [Moguisteine],inactive: 39.2%
22,O=C(NC(Cc1cc(O)nc2ccccc12)C(=O)O)c1ccc(Cl)cc1 (stereo unspecified) [Rebamipide],inactive: 41.9%
23,CCCCCCCCCC(=O)N[C@@H](Cc1c[nH]c2ccccc12)C(=O)N[C@H](CC(N)=O)C(=O)N[C@@H](CC(=O)O)C(=O)N[C@@H]1C(=O)NCC(=O)N[C@H](CCCN)C(=O)N[C@@H](CC(=O)O)C(=O)N[C@@H](C)C(=O)N[C@@H](CC(=O)O)C(=O)NCC(=O)N[C@H](CO)C(=O)N[C@@H]([C@@H](C)CC(=O)O)C(=O)N[C@@H](CC(=O)c2ccccc2N)C(=O)O[C@@H]1C [Daptomycin],inactive: 37.2%
24,CCCNC(=O)Nc1ccc(Oc2ncnc3cc(OC)c(OC)cc23)cc1Cl,inactive: 38.6%

row,Compound,percentage of GFP+
1,Cc1cccc(Nc2ccncc2S(=O)(=O)NC(=O)NC(C)C)c1 [Torasemide],inactive: 41.5%
2,O=C(O[C@H]1CN2CCC1CC2)N1CCc2ccccc2[C@@H]1c1ccccc1 [Solifenacin],inactive: 53.4%
3,c1ccc2c(CCNc3ccc(Nc4ccncc4)cc3)c[nH]c2c1 [Serdemetan],inactive: 38.5%
4,C=C1C(=O)O[C@H]2[C@H]1CC/C(C)=C\CC[C@@]1(C)O[C@@H]21 [(-)-Parthenolide],inactive: 31.1%
5,CCC[C@@H]1O[C@@H]2C[C@H]3[C@@H]4CCC5=CC(=O)C=C[C@]5(C)[C@H]4[C@@H](O)C[C@]3(C)[C@]2(C(=O)CO)O1 [Budesonide],inactive: 30.8%
6,CC(C)(C)/[N+]([O-])=C/c1ccc(S(=O)(=O)O)cc1S(=O)(=O)O,inactive: 45.9%
7,CC[C@H](c1ccc(O)cc1)[C@@H](CC)c1ccc(O)cc1 [Hexestrol],inactive: 46.7%
8,NC1=N[C@@]2(c3cc(NC(=O)c4ccc(F)cn4)ccc3F)COC[C@H]2CS1,inactive: 42.7%
9,Cc1nccn1CC1CCc2c(c3ccccc3n2C)C1=O (stereo unspecified) [Ondansetron],inactive: 37.2%
10,C1N2CN3CN1CN(C2)C3 [Hexamethylenetetramine],inactive: 50.1%
11,COc1cc2c(cc1O)CC[C@@H]1[C@@H]2CC[C@]2(C)[C@@H](O)CC[C@@H]12 [2-Methoxyestradiol],inactive: 30.7%
12,O=C1c2c(O)cc(O)cc2O[C@H](c2ccc(O)c(O)c2)[C@H]1O [Taxifolin (Dihydroquercetin)],inactive: 43.8%
13,Oc1cccc(-c2nc(N3CCOCC3)c3oc4ncccc4c3n2)c1,inactive: 37%
14,OCc1ccc(-c2ccc(-c3ccc(CO)s3)o2)s1,inactive: 34.7%
15,Cc1cc(C2CCCCC2)n(O)c(=O)c1 [Ciclopirox],inactive: 29.6% and inactive: 35.5%
16,O=C(Oc1cc(S(=O)(=O)c2ccccc2)ccc1[N+](=O)[O-])c1ccc(Cl)cc1,inactive: 56.2%
17,NC(=O)c1cnccn1 [Pyrazinamide],inactive: 40.9%
18,Cc1ccccc1C(OCCN(C)C)c1ccccc1 (stereo unspecified) [Orphenadrine],inactive: 34.6%
19,Nc1nc(N)c(N=O)c(OCC2CCCCC2)n1,inactive: 38.6%
20,NCC(=O)Nc1ccc(-n2nc(C(F)(F)F)cc2-c2ccc3c(ccc4ccccc43)c2)cc1,inactive: 38.6%
21,NS(=O)(=O)c1cc2c(cc1Cl)NCNS2(=O)=O [Hydrochlorothiazide],inactive: 35.2%
22,Oc1ccc([C@H]2COc3cc(O)ccc3C2)cc1 [Equol],inactive: 37.9%
23,Nc1ccc(S(=O)(=O)Nc2nccs2)cc1 [Sulfathiazole],inactive: 48.5%
24,COc1ccc([C@@H]2Sc3ccccc3N(CCN(C)C)C(=O)[C@@H]2OC(C)=O)cc1 [Diltiazem],inactive: 42.6%

row,Compound,percentage of GFP+
1,NC(=O)OCC(COC(N)=O)c1ccccc1 [Felbamate],inactive: 48%
2,CC(C)(Oc1ccc(C2CC2(Cl)Cl)cc1)C(=O)O (stereo unspecified) [Ciprofibrate],inactive: 65.1%
3,CSc1nc2cc(Cl)c(Oc3cccc(Cl)c3Cl)cc2[nH]1 [Triclabendazole],inactive: 48.9%
4,COc1ccc2[nH]cc(CCNC(C)=O)c2c1 [Melatonin],inactive: 30.8%
5,Clc1ccc(C(Cn2ccnc2)OCc2ccsc2Cl)c(Cl)c1 (stereo unspecified) [Tioconazole],inactive: 40.6%
6,CCc1nc(-c2cccc(C)c2)c(-c2ccnc(NC(=O)c3ccccc3)c2)s1,inactive: 52.2%
7,Nc1ccc(S(N)(=O)=O)cc1 [Sulfanilamide],inactive: 50.2%
8,"CN1CCCC(n2nc(Cc3ccc(Cl)cc3)c3ccccc3c2=O)CC1 (stereo unspecified) [Azelastine, Azelastine Hydrochloride]",inactive: 41.1%
9,O=C(Nc1cc(C(F)(F)F)cc(C(F)(F)F)c1)c1cc(Cl)ccc1O,inactive: 42.4%
10,OCCOCCN1CCN(C(c2ccccc2)c2ccc(Cl)cc2)CC1 (stereo unspecified) [Hydroxyzine],inactive: 55.6%
11,Cc1cc(Nc2cc(N3CCN(C)CC3)nc(Sc3ccc(NC(=O)C4CC4)cc3)n2)n[nH]1,inactive: 33.6%
12,C=CCc1cccc(/C=N/NC(=O)CN2CCN(Cc3ccccc3)CC2)c1O,inactive: 50.5%
13,COc1cc2nccc(Oc3ccc(NC(=O)NC4CC4)c(Cl)c3)c2cc1C(N)=O [Lenvatinib],inactive: 27.6%
14,Clc1ccc(CSC(Cn2ccnc2)c2ccc(Cl)cc2Cl)cc1 (stereo unspecified) [Sulconazole],inactive: 47.6%
15,C[C@]12CC[C@@H]3c4ccc(O)cc4CC[C@H]3[C@@H]1CC[C@@H]2O [Estradiol],inactive: 46.4%
16,Cc1ccc(S(=O)(=O)n2c(N)nc3ccccc32)cc1 [Nodinitib-1],inactive: 51.9%
17,C[C@@H](Oc1cc(-n2cnc3ccc(CN4CCN(C)CC4)cc32)sc1C(N)=O)c1ccccc1C(F)(F)F,inactive: 27.8%
18,O=C(CCCN1CC=C(n2c(O)nc3ccccc32)CC1)c1ccc(F)cc1 [Droperidol],inactive: 55.4%
19,COc1cc2nccc(Oc3ccc(NC(=O)C4(C(=O)Nc5ccc(F)cc5)CC4)cc3)c2cc1OC [Cabozantinib],inactive: 29.6%
20,CC(=O)N1CCN(CCOc2ccc(C3CCN(C4=Nn5c(nnc5C(F)(F)F)CC4)CC3)cc2)CC1,inactive: 43.8%
21,CCCOc1ccc(C(=O)OCCN(CC)CC)cc1N [Proparacaine],inactive: 37.1%
22,"C[N+](C)(C)CC(O)CC(=O)O (stereo not drawn) [Carnitine Hydrochloride, Carnitine (dl) Hydrochloride]",inactive: 40.1%
23,O=C(O)c1cccnc1Nc1cccc(C(F)(F)F)c1 [Niflumic Acid],inactive: 44.2%
